Assay results as given in the supplement of paper PMC4967469.

Legend:
Assay in all cases: Viability of human cancer cell lines after 72 h of drug (GDSC screen)
[1] = compound: N=C(N)NC(=N)NCCc1ccccc1 [Phenformin]; details: top dose 4000 µM; top dose inferred
Description: (§1)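 Human cancer cell lines in 384-well plates, medium with 10% serum, drug for 72 h over a 256-fold dose range (nine 2-fold or five 4-fold steps up to the top dose). Adherent lines were fixed and stained with the nucleic acid dye Syto60, suspension lines read with resazurin; signal relative to control wells, capped at 0 and 100%. One two-parameter sigmoid per drug and line, fitted in a mixed model over all curves with the slope shared within a line.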

[2] = compound: COc1cc2ncnc(Nc3cc(Br)c(O)c(Br)c3)c2cc1OC [WHI-P97]; details: top dose 10.24 µM; top dose inferred
Description: as §1

[3] = compound: CNCc1ccc(-c2[nH]c3cc(F)cc4c3c2CCNC4=O)cc1 [AG-014699]; details: top dose 5 µM; top dose inferred
Description: as §1

[4] = compound: N[C@@H](CSC(c1ccccc1)(c1ccccc1)c1ccccc1)C(=O)O [S-Trityl-L-cysteine]; details: top dose 5.12 µM; top dose inferred
Description: as §1

[5] = compound: C=CC(=O)Nc1cc(NC(=O)c2ccc(C)c(NC(=O)c3ccno3)c2)cc(C(F)(F)F)c1 [QL-XI-92]; details: top dose 10.24 µM; top dose inferred
Description: as §1

[6] = compound: COc1cc2ncnc(Nc3ccc(F)c(Cl)c3)c2cc1OCCCN1CCOCC1 [Gefitinib]; details: top dose 0.5 µM
Description: as §1

[7] = compound: CCC1=C[C@@H]2CN(C1)Cc1c([nH]c3ccccc13)[C@@](C(=O)OC)(c1cc3c(cc1OC)N(C)[C@H]1[C@@](O)(C(=O)OC)[C@H](OC(C)=O)[C@]4(CC)C=CCN5CC[C@]31[C@@H]54)C2 [Vinorelbine]; details: top dose 0.064 µM; top dose inferred
Description: as §1

[8] = compound: O=c1cc(N2CCOCC2)oc2c(-c3cccc4c3sc3ccccc34)cccc12 [NU-7441]; details: top dose 2 µM; top dose inferred
Description: as §1

[9] = compound: O=c1cc(CN2CCOCC2)occ1OCCCCCSc1ccnc2cc(C(F)(F)F)ccc12 [EHT 1864]; details: top dose 10 µM; top dose inferred
Description: as §1

[10] = compound: COc1cc2nccc(Oc3ccc(NC(=O)C4(C(=O)Nc5ccc(F)cc5)CC4)cc3)c2cc1OC [XL-184]; details: top dose 5.12 µM; top dose inferred
Description: as §1

Row | Cell Line | AUC [1] | IC50 [1] | AUC [2] | IC50 [2] | AUC [3] | IC50 [3] | AUC [4] | IC50 [4] | AUC [5] | IC50 [5] | AUC [6] | IC50 [6] | AUC [7] | IC50 [7] | AUC [8] | IC50 [8] | AUC [9] | IC50 [9] | AUC [10] | IC50 [10]
1 | NB69 (neuroblastoma, adherent) | 0.777 | 1420 µM | 0.988 | > 10.2 µM | 0.707 | 1.1 µM | 0.696 | 1.05 µM | 0.966 | > 10.2 µM | 0.87 | 0.379 µM | 0.501 | 0.00403 µM | 0.93 | > 2 µM | 0.911 | > 10 µM | 0.907 | > 5.12 µM
2 | NB-4 (acute myeloid leukaemia, suspension) | 0.771 | 1260 µM | 0.928 | > 10.2 µM | 0.991 | > 5 µM | 0.68 | 0.917 µM | 0.835 | 5.08 µM | 0.991 | > 0.5 µM | 0.296 | 0.00121 µM | 0.953 | > 2 µM | 0.988 | > 10 µM | 0.968 | > 5.12 µM
3 | NCI-H64 (small cell lung carcinoma, suspension) | 0.984 | > 4000 µM | 0.992 | > 10.2 µM | 0.994 | > 5 µM | 0.737 | 1.22 µM | 0.981 | > 10.2 µM | 0.996 | > 0.5 µM | 0.526 | 0.00464 µM | 0.992 | > 2 µM | 0.99 | > 10 µM | 0.981 | > 5.12 µM
4 | NCI-H69 (small cell lung carcinoma, suspension) | 0.843 | 3310 µM | 0.986 | > 10.2 µM | 0.985 | > 5 µM | 0.634 | 0.787 µM | 0.923 | > 10.2 µM | 0.986 | > 0.5 µM | 0.59 | 0.00728 µM | 0.984 | > 2 µM | 0.967 | > 10 µM | 0.969 | > 5.12 µM
5 | NCI-H187 (small cell lung carcinoma, suspension) | 0.552 | 351 µM | 0.988 | > 10.2 µM | 0.986 | > 5 µM | 0.858 | 4.82 µM | 0.934 | > 10.2 µM | 0.988 | > 0.5 µM | 0.715 | 0.0172 µM | 0.98 | > 2 µM | 0.949 | > 10 µM | 0.987 | > 5.12 µM
6 | NCI-H211 (small cell lung carcinoma, adherent) | 0.597 | 458 µM | 0.959 | > 10.2 µM | 0.986 | > 5 µM | 0.64 | 0.773 µM | 0.976 | > 10.2 µM | 0.984 | > 0.5 µM | 0.525 | 0.00467 µM | 0.978 | > 2 µM | 0.954 | > 10 µM | 0.925 | > 5.12 µM
7 | NCI-H226 (lung squamous cell carcinoma, adherent) | 0.859 | 3580 µM | 0.976 | > 10.2 µM | 0.94 | > 5 µM | 0.962 | > 5.12 µM | 0.985 | > 10.2 µM | 0.967 | > 0.5 µM | 0.771 | 0.0257 µM | 0.987 | > 2 µM | 0.987 | > 10 µM | 0.869 | > 5.12 µM
8 | NCI-H446 (small cell lung carcinoma, semi-adherent) | 0.812 | 2350 µM | 0.939 | > 10.2 µM | 0.986 | > 5 µM | 0.757 | 1.89 µM | 0.892 | > 10.2 µM | 0.984 | > 0.5 µM | 0.7 | 0.0154 µM | 0.931 | > 2 µM | 0.985 | > 10 µM | 0.929 | > 5.12 µM
9 | NCI-H510A (small cell lung carcinoma, semi-adherent) | 0.82 | 2060 µM | 0.986 | > 10.2 µM | 0.988 | > 5 µM | 0.576 | 0.508 µM | 0.932 | > 10.2 µM | 0.988 | > 0.5 µM | 0.666 | 0.0111 µM | 0.99 | > 2 µM | 0.923 | > 10 µM | 0.949 | > 5.12 µM
10 | NCI-H524 (small cell lung carcinoma, suspension) | 0.635 | 565 µM | 0.991 | > 10.2 µM | 0.961 | > 5 µM | 0.634 | 0.719 µM | 0.955 | > 10.2 µM | 0.981 | > 0.5 µM | 0.912 | > 0.064 µM | 0.991 | > 2 µM | 0.99 | > 10 µM | 0.991 | > 5.12 µM
11 | NCI-H526 (small cell lung carcinoma, suspension) | 0.795 | 1770 µM | 0.962 | > 10.2 µM | 0.962 | > 5 µM | 0.879 | 4.87 µM | 0.985 | > 10.2 µM | 0.979 | > 0.5 µM | 0.613 | 0.00805 µM | 0.932 | > 2 µM | 0.958 | > 10 µM | 0.97 | > 5.12 µM
12 | NCI-H747 (large intestine, adherent) | 0.622 | 587 µM | 0.865 | > 10.2 µM | 0.98 | > 5 µM | 0.879 | > 5.12 µM | 0.851 | > 10.2 µM | 0.968 | > 0.5 µM | 0.782 | 0.0332 µM | 0.982 | > 2 µM | 0.94 | > 10 µM | 0.909 | > 5.12 µM

IC50 is the fitted dose that halves viability relative to control wells, and lower means more sensitive; a limit (>, <) means that the fit lies beyond the doses tested. The AUC spans the tested range (256-fold, ending at the top dose) of the same fit; it is 1 without any effect and falls as sensitivity rises. For part of these data: A top dose marked as inferred was calculated from the reported fits.
